Hit rate of the full screen: of about 310,000 compounds, about 14,000 (4.5%) showed an effect of 50% or more. The effect is printed as a negative number. Some of the results follow.
Each compound was assayed against human ether-à-go-go-related gene (hERG) potassium channel (human, UniProt Q12809) (assay: primary screen, population patch clamp on CHO cells stably expressing hERG).
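Note: peak tail current of the secondary pulse compared with the same well before compound.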

Sequence of human ether-à-go-go-related gene (hERG) potassium channel (Q12809 whole entry, looked up): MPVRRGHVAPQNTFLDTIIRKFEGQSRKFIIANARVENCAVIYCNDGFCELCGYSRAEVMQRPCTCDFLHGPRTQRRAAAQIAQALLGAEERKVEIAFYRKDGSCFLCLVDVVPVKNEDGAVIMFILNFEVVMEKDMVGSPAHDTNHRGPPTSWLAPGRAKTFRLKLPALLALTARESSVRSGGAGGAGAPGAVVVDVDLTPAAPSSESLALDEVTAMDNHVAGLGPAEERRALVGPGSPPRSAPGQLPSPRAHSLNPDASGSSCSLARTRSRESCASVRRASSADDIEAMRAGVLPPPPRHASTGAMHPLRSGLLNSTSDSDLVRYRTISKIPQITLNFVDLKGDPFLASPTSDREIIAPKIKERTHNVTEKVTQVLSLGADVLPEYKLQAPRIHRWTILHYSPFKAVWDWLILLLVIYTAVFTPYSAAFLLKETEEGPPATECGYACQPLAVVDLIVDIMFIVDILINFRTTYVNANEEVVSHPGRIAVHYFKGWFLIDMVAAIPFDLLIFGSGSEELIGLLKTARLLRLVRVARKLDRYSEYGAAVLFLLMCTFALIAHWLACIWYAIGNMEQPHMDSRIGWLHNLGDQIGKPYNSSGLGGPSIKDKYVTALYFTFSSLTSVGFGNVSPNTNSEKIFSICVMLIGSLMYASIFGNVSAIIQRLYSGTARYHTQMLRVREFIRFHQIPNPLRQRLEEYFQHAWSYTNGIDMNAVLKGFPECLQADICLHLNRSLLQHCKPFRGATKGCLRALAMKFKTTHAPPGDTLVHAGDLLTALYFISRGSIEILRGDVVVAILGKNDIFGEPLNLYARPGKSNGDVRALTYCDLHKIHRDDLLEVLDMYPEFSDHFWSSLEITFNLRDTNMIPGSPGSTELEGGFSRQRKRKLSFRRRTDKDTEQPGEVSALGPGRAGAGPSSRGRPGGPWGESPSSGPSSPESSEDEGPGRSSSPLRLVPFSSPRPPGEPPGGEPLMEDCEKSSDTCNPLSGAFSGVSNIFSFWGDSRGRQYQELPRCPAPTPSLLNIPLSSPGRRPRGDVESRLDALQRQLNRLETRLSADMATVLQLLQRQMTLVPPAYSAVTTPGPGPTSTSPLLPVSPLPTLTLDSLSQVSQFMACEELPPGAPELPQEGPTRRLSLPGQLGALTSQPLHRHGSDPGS

| SMILES | hERG current change (%, negative = inhibition) at 10uM |
| --- | --- |
| Cc1ccc(NC(=S)N(Cc2cccs2)Cc2cc3cc(C)cc(C)c3[nH]c2=O)cc1 | 7.79% |
| O=C(N/N=C/c1ccccc1F)c1cc2c(ccc3ccccc32)o1 | -2.75% |
| CCO[C@@H]1OC(C(=O)NCc2nc3ccccc3[nH]2)=C[C@H](c2csc3ccccc23)[C@H]1CCCO | -34.1% |
| O=C1CC2(CCN(C(=O)c3c(F)cccc3Cl)CC2)Oc2ccccc21 | -41.2% |
| Cc1nc2ccccn2c1C(=O)NNC(=S)Nc1ccccc1 | 10.7% |
| CCCCc1ccc(NC(=S)NCc2cccnc2)cc1 | -14.8% |
| NC(=O)CC(NC(=O)Cc1cccc2ccccc12)c1ccc(NCCN2CCCC2)c([N+](=O)[O-])c1 (centres unmarked) | -2.9% |
| CC(=O)NS(=O)(=O)c1ccc(NC(=O)CCC2CCCC2)cc1 | -0.0873% |
| COc1ccc2[nH]c(C(=O)O)c(NS(=O)(=O)c3ccc(F)cc3)c2c1 | 13.2% |
| CCSC(=O)NC1CCCCC1 | 10.1% |
| O=C1/C(=C\c2ccncc2)CCc2ccccc21 | -26.4% |
| CCOP(=O)(OCC)C(C#N)=C1SCN(c2ccc(Cl)cc2)CS1 | 12.6% |
| CCOC(=S)SCc1cn2ccccc2n1 | 5.57% |
| COc1cccc(C(=O)NC(=S)Nc2ccccc2N2CCCC2)c1 | 12.7% |
| CCOc1ccc(CNC(=O)CCCN2C(=O)C(c3ccccc3)Oc3cccnc32)cc1 (centres unmarked) | 15.7% |
| CN(Cc1ccc2c(c1)OCCO2)C(=O)CN1C(=O)NC2(CCCCC2)C1=O | 9.15% |
| CCN1CCSc2ccc(C(=O)NCc3cc(Br)ccc3OC)cc21 | -4.21% |
| CC(=O)Nc1ccc(/C=C(\C#N)C(=O)NC2CCCCC2C)cc1 (centres unmarked) | -29.8% |
| O=C1CC(SC(=NCc2ccc3c(c2)OCO3)Nc2ccccc2)C(=O)N1c1ccccc1 (centres unmarked) | 14.6% |
| COc1ccccc1C(=O)COC(=O)Cn1c(C)csc1=O | -13% |
| O=C(NNC(=O)c1ccc(O)cc1O)c1ccc(Cl)cc1 | -1.82% |
| CC1CCN(C(c2ccc(N(C)C)cc2)c2nnnn2C(C)(C)C)CC1 (centres unmarked) | -7.17% |

| SMILES | hERG current change (%, negative = inhibition) at 10uM |
| --- | --- |
| O=C(Cc1ccc(Cl)cc1)NCC(=O)N1CCN(c2ccccc2)CC1 | -19.6% |
| CCN(CC)c1ccc(CNc2ccc(Br)cn2)cc1 | 13.1% |
| COc1ccc(CN(C(=O)c2nsc(Cl)c2Cl)C(C(=O)NC2CCCCC2)c2ccc(OC)cc2)cc1 (centres unmarked) | -6.67% |
| CCCCCOc1ccc(C2C(C(=O)c3ccc(C)o3)=C(O)C(=O)N2c2cc(C)on2)cc1 (centres unmarked) | 15.9% |
| Cc1ccsc1C(=O)C1CCCN(CCO)C1 (centres unmarked) | 5.34% |
| O=C(Nc1ccc(N2CCN(C(=O)c3ccc(Cl)cc3)CC2)cc1)c1cccs1 | -7.89% |
| c1ccc(CCC2CCCCN2Cc2nc(-c3ccc4c(c3)OCO4)no2)nc1 (centres unmarked) | -55.7% |
| CC(C)Cn1c(N)c(C(=O)CSc2nncs2)c(=O)n(C)c1=O | -12.9% |
| CC(C)Nc1nc(Oc2ccc(Cl)cc2)cc(C(F)(F)F)n1 | -8.31% |
| COc1cccc(CC(NC(C)=O)C(=O)NC2CCN(c3c(Cc4ccccc4)c(C)nc4ncnn34)CC2)c1 (centres unmarked) | -0.458% |
| COc1ccc(C(C(=O)NC2CCCC2)N(CCO)C(=O)Cn2nnc(-c3ccc(C)o3)n2)cc1OC (centres unmarked) | 3.26% |
| O=C(Nc1ccc2c(c1)ncn2-c1ccccc1)c1ccco1 | -4.23% |
| Cc1nn2c(-n3ccnc3)c3c(nc2c1-c1ccccc1)CCC3 | -16% |
| COc1ccc(C2CC(c3ccc4ccccc4c3OC(C)=O)=NN2C(C)=O)cc1 (centres unmarked) | 10.2% |
| Cc1ccc(CNC(=O)CCCNS(=O)(=O)c2cccc3nonc23)cc1 | -11.4% |
| COc1ccc(OCC(=O)Nc2ccc3c(c2)nc(CCN2CCOCC2)n3C)cc1 | -41% |
| O=C(COc1ccccc1Cl)NCCCNC(=O)c1ccco1 | 2.17% |
| CC(=O)c1ccc(S(=O)(=O)NCCc2cn3ccc(C)cc3n2)cc1 | -29.9% |
| Nc1nccc(-c2ccc(-n3cnc4ccccc43)cc2)n1 | -25.3% |
| O=C(O)CCN1C(=O)c2ccncc2C1=O | -6.92% |
| COc1cc(NC(=O)c2ccccc2F)c(OC)cc1NC(=O)CN1CCOCC1.Cl | -13.1% |
| CCOc1ccc(C(C)=O)cc1Cn1nc(C(=O)O)c2ccccc2c1=O | -8.26% |

| SMILES | hERG current change (%, negative = inhibition) at 10uM |
| --- | --- |
| Cc1ccccc1S(=O)(=O)c1cc(C#N)c(=O)[nH]c1N | 19% |
| COc1ccc(-c2csc(NC(C)c3nc4cc(C(F)(F)F)ccc4n3CCOCCO)n2)cc1 (centres unmarked) | -39.3% |
| CCCc1cc(C(=O)N2CCCC(C(=O)c3cc(C)c(OC)c(C)c3)C2)n(C)n1 (centres unmarked) | -41.3% |
| S=C(NCC(c1ccco1)N1CCCC1)Nc1ccccc1 (centres unmarked) | -28.9% |
| CC(OC(=O)CCC(=O)N1CCN(S(=O)(=O)c2ccc3ccccc3c2)CC1)C(=O)NC(N)=O (centres unmarked) | -22.9% |
| CC(=O)c1cccc(NC(=S)NC(=O)c2ccc(C)cc2Cl)c1 | 9.94% |
| O=C(CCc1nc(-c2ccccc2)no1)NC1CCCCCC1 | 1.28% |
| O=C(NCc1ccc2c(c1)OCO2)C1CCCN(S(=O)(=O)c2cccc3nonc23)C1 (centres unmarked) | -1.06% |
| CN(C)/C=N/NC(=O)c1ccccc1Cl | 23.8% |
| CCC1CCCCN1CCCNC(=O)CSc1nc2nc(C)c(Cc3ccccc3)c(C)n2n1 (centres unmarked) | -34.2% |
| Cc1onc(C(=O)N2CCC(C(N)=O)CC2)c1-c1ccccc1Cl | 17.6% |
| Cc1cccc(CSc2nnc(Cn3c(=O)sc4ccccc43)n2C)c1 | -37.9% |
| O=C(Nc1cccc(S(=O)(=O)c2cccc(NC(=O)C3CC3)c2)c1)C1CC1 | -6.06% |
| CCN(CC)C(=O)C1CCN(C(=O)c2oc3ccc(C)cc3c2C)CC1 | -6.34% |
| O=C(CSc1nc2[nH]ncc2c(=O)n1-c1ccccc1Br)NCc1ccccc1Cl | -27.8% |
| Cc1noc(C)c1S(=O)(=O)Nc1ccccc1Cl | 13.5% |
| CCOC(=O)C(Sc1ncn[nH]1)c1ccccc1 (centres unmarked) | -3.76% |
| COc1ccc(NC(=O)c2cc(-c3cccs3)on2)cc1 | 5.59% |
| O=C(CC1C(=O)NCCN1C(=O)c1ccc(F)cc1)OCc1ccccc1 (centres unmarked) | 1.07% |
| O=C(CC(Sc1ccc(Br)cc1)C(=O)O)c1ccc(F)cc1 (centres unmarked) | 17.1% |
| CCOC(=O)C(C(C)=O)c1c(Br)c(O)c(O)c2c(C(=O)c3ccc(C)cc3)coc12 (centres unmarked) | 1.77% |
| CCN1C(=O)[C@H]2[C@@H](c3ccc(OC)cc3)N3C(=O)CN(Cc4ccccc4)C(=O)[C@@]3(C)[C@H]2C1=O | 18.6% |

| SMILES | hERG current change (%, negative = inhibition) at 10uM |
| --- | --- |
| Cc1cccc([C@@H]2[C@@H]3C(=O)N(Cc4ccccc4)C(=O)[C@@H]3[C@]3(CC(C)C)C(=O)N(c4cccc(F)c4)C(=O)N23)c1 | 6.63% |
| O=C(Nc1ccc(Cl)c(S(=O)(=O)N2CCCCC2)c1)c1cccnc1 | -21.5% |
| CCOC(=O)c1cc2c(=O)n3ccccc3nc2n(CCCOC)c1=NC(=O)C(C)(C)C | -7.42% |
| CN(C)C(CNC(=O)CN1C(=O)NC2(CCCC2)C1=O)c1ccccc1 (centres unmarked) | 0.638% |
| CCc1nc(C)ccc1OCC(=O)N(CC)CC.O.O=C(O)C(=O)O | -30.9% |
| CCOc1ccc2nc(-c3cc(NC(C)=O)ccc3O)sc2c1 | 25% |
| CC(C)CCOP(=O)(c1ccc(N(C)C)cc1)C(O)c1ccccn1 (centres unmarked) | -3.97% |
| CCCNC(=O)CN1C(=O)NC(CCc2ccccc2)C1=O (centres unmarked) | 22.1% |
| Cc1c(CCO)c(=O)[nH]n1S(=O)(=O)c1ccc(Cl)cc1Cl | 1.33% |
| COC(=O)CN(c1nc(C)c(Br)c(OC)n1)S(=O)(=O)c1ccccc1 | 7.97% |
| N#CC1=C(c2ccc(-c3ccccc3)cc2)COC1=O | -15.1% |
| CCN(CC)S(=O)(=O)c1cc(C(=O)OCC(=O)NC2CCCc3ccccc32)ccc1C (centres unmarked) | -27.5% |
| COCCCNc1nc2ccccc2nc1NS(=O)(=O)c1cc(Cl)ccc1Cl | 10.6% |
| Cc1ccc(S(=O)(=O)Cc2ccc(C(=O)NCc3cccs3)o2)cc1 | -7.53% |
| Cc1ccc(-n2c(C)cc(/C=C3\C(=O)NC(=O)N(C)C3=O)c2C)cc1C | 4% |
| O=C(COC(=O)c1ccc(S(=O)(=O)N2CCCC2)cc1)NCc1cccs1 | -1.99% |
| Cc1cccc(OCCCC(=O)Nc2ccc(S(N)(=O)=O)cc2)c1C | 10.8% |
| Cn1sc(NC(=O)c2ccccc2)nc1=O | -16.4% |
| CCn1c(C(C)NC(=O)c2cccc(C)c2)n[nH]c1=S (centres unmarked) | -28% |
| O=C(NCCc1c[nH]c2ccccc12)C(=O)NCC1OCCN1S(=O)(=O)c1ccccc1 (centres unmarked) | -8.58% |

From publication PMC4336329 (PLoS ONE, 2015)
